Screen size: about 48,000 compounds; about 120 (0.25%) were called active. About 4% were inconclusive and are not listed. The call rests on the fitted dose curve; in most records, active means well fitted activation curve with a large enough effect; inconclusive means small, poorly fitted or top-dose-only effect, or another doubt; inactive means no such curve, though single readings can be large or run the other way. The list shows a part of the results.

This assay can be described thus: Primary qHTS for Identification of Small Molecule Activators of Huntingtin-Antisense Promoter Activity. Further: nearly all actives have a fitted effect of over 55% in size. Particulars: HEK293 HTT-AS promoter firefly luciferase reporter, 24 h; series mostly up to 57.5 µM; activity change, positive = activation: at the top concentration. In a few lines:
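HEK293 cells carrying firefly luciferase reporters were seeded at 2,500 per well in Opti-MEM and cultured for 24 h. They were then treated with compounds at up to 57.5 uM final for 24 h at 37 degrees C before Dual-Glo luminescence readout.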
For orientation: Quantitative high-throughput screening tests each substance at several concentrations.
On to `CSc1cccc(-n2nnc(-c3nsc(NC(=O)c4cccs4)n3)c2C)c1`, for which the “activity change, positive = activation” value is inactive: 18.7%.

On to `CCOC(=O)c1ccccc1NC(=O)CSc1nc(=O)[nH]c2c1CCCC2`, for which the “activity change, positive = activation” value is inactive: -8.37%.

`Cc1ccc(NC(=O)CN2C(=O)C(c3ccccc3)=NC23CCCCC3)cc1C`: the “activity change, positive = activation” value is inactive: -31.4%.

For `CCc1ccc2occ(CC(=O)N(Cc3ccccc3)C3CCS(=O)(=O)C3)c2c1` (configuration not stated), the “activity change, positive = activation” value was inactive: -18.2%.

For the compound `COc1ccc(-n2c(C)nc3c(cnn3-c3ccc(C)c(C)c3)c2=O)cc1Cl`, the “activity change, positive = activation” value was inactive: -8.6%.

As to `CCS(=O)(=O)N1CCCc2cc(C(=O)Nc3cc([N+](=O)[O-])ccc3C)ccc21`, the “activity change, positive = activation” value is inactive: -53.5%.

For the compound `CCc1ccc(S(=O)(=O)c2nnn3c2nc(N(C)Cc2ccccc2)c2cc(Cl)ccc23)cc1`, the “activity change, positive = activation” value is inactive: 16.3%.

In the case of `COc1cccc(CNC(=O)Cn2c(=O)ccc3cc(S(=O)(=O)N4CCCC4)ccc32)c1`, the “activity change, positive = activation” value was inactive: -11.2%.

For `CCN(CC)CCCNC(=O)c1cn(CC)c2ccc(S(=O)(=O)N3CCC(C)CC3)cc2c1=O`, the “activity change, positive = activation” value is inactive: 3.38%.

Take `Cc1cc(=O)n(CC(=O)N2CCCCC2)c2c1c(C)nn2C`: the “activity change, positive = activation” value was inactive: 15.3%.

On to `COc1ccc(Nc2nc3c(S(=O)(=O)c4ccccc4)nnn3c3ccc(Cl)cc23)cc1`, for which the “activity change, positive = activation” value is inactive: -37.7%.

Regarding `COc1cc(/C=C(/C#N)c2nc(-c3cc4ccccc4oc3=O)cs2)ccc1O`, the “activity change, positive = activation” value was inactive: 4.12%.

As for `Cc1cccc(NC(=O)CSc2nc3c([nH]c4ccccc43)c(=O)n2-c2cc(C)cc(C)c2)c1`, the “activity change, positive = activation” value is inactive: -10.1%.

Turning to `Cc1c(Cl)cccc1NC(=O)Nc1c[nH]c(=O)[nH]c1=O`, the “activity change, positive = activation” value is inactive: -8.17%.

As for `COc1cc(OC)cc(C(=O)Nc2nc(-c3nnn(-c4ccc(C)cc4)c3C)ns2)c1`, the “activity change, positive = activation” value is inactive: -55.9%.

For the compound `CCOC(=O)C1=C(CN2CCC(C)CC2)NC(=O)NC1c1ccc(OC(C)C)cc1` (configuration not stated), the “activity change, positive = activation” value was inactive: -29.4%.

On to `Nc1ccc(S(=O)(=O)NCc2ccccc2)cc1`, for which the “activity change, positive = activation” value is inactive: -12%.

Turning to `Cc1ccc(Cn2c(CO)cnc2SCc2ccc(F)cc2)cc1`, the “activity change, positive = activation” value is inactive: -23.5%.

In the case of `O=C(Nc1ccc(Cl)cc1Cl)c1cc(S(=O)(=O)NCc2ccc3c(c2)OCO3)ccc1F`, the “activity change, positive = activation” value is inactive: -21.6%.

As to `Cc1nn(CCC(=O)Nc2ccc(Cl)cc2)c(C)c1S(=O)(=O)N1CCCCC1`, the “activity change, positive = activation” value was inactive: -32.1%.

As for `COc1ccccc1Cn1cc(C(=O)c2ccccc2)c(=O)c2cc(OC)c(OC)cc21`, the “activity change, positive = activation” value was inactive: -3.61%.

On to `CN(C)c1ccc(CNC(=O)C2CCN(c3nnc(-n4cccc4)s3)CC2)cc1`, for which the “activity change, positive = activation” value was inactive: -44.7%.

For `CCOc1ccc(C(=O)Nc2ccc(-c3cc4ccccc4oc3=O)cc2)cc1Br`, the “activity change, positive = activation” value was inactive: -59.7%.

In the case of `CN(C1CCCCC1)S(=O)(=O)c1ccc2c(c1)c(=O)c(C(=O)N1CCN(c3ccccc3)CC1)cn2C`, the activity change, positive = activation is inactive: 10.1% [at 11.5 µM, percent change from vehicle, -100% = no light].

Turning to `O=C(O)c1ccc(NC(=O)c2ccc(Cl)c(S(=O)(=O)N3CCCCCC3)c2)cc1`, the “activity change, positive = activation” value is inactive: 12%.

With `O=S(=O)(NCCS(=O)(=O)N1CCN(c2ccccc2)CC1)c1ccccc1`, the “activity change, positive = activation” value is inactive: -7.76%.

For the compound `COC(=O)c1ccc(NC(=O)C(C)Sc2nc(=O)cc(N)n2CCc2ccccc2)cc1` (configuration not stated), the “activity change, positive = activation” value was inactive: -22.3%.

As for `Cc1nc2c3ccccc3nc(NNC(=O)CCC(=O)O)n2n1`, the “activity change, positive = activation” value was inactive: 0.716%.

On to `Cc1ccc(NC(=O)CN2C(=O)CCSc3ccccc32)c(C)c1`, for which the “activity change, positive = activation” value was inactive: -16.8%.

On to `COc1ccc(CCNC(=O)c2ccc3c(c2)nc(C)n3-c2ccc(Br)cc2)cc1OC`, for which the “activity change, positive = activation” value is inactive: -24.3%.

Take `C=Cc1ccc(CN2C(=O)N(c3ccc(C)c(C)c3)S(=O)(=O)c3ccccc32)cc1`: the “activity change, positive = activation” value was inactive: -25.6%.

`COc1ccccc1C(=O)Nc1nnc(SCc2cc(=O)c3ccccc3[nH]2)s1`: the “activity change, positive = activation” value is inactive: -20.4%.

With `CCOc1ccc(NC(=O)c2cc3cc4ccc(C)cc4nc3o2)cc1`, the “activity change, positive = activation” value is inactive: -7.47%.

With `Cc1ccc(-n2c(=O)c3ccc(C(=O)NCc4ccco4)cc3n(Cc3ccccc3Cl)c2=O)cc1`, the “activity change, positive = activation” value was inactive: 11.5%.

Take `Brc1cccc(-c2nnn3c2nc(NC2CCCCC2)c2ccccc23)c1`: the “activity change, positive = activation” value is inactive: 2.87%.

In the case of `Cc1nn(-c2ccc(N3CCOCC3)nn2)c(C)c1CCC(=O)NCc1ccc(Cl)cc1`, the “activity change, positive = activation” value is inactive: -23%.

Turning to `CCS(=O)(=O)c1ncc(Cl)c(C(=O)Nc2ccc(S(=O)(=O)N(C)c3ccccc3)cc2)n1`, the “activity change, positive = activation” value was inactive: -94.6%.

Take `Cc1cccc(C)c1Nc1sc(C(=O)c2ccccc2)c(N)c1S(=O)(=O)c1ccccc1`: the “activity change, positive = activation” value is inactive: -40.5%.

With `COc1ccc2nc3sc(C(=O)NCCc4ccc(Cl)cc4)cc3cc2c1`, the “activity change, positive = activation” value was inactive: -9.29%.

As for `COc1cc(OC)c(NC(=O)C2=C(C)C(=O)OC23CCN(C(C)=O)CC3)cc1Cl`, the “activity change, positive = activation” value is inactive: -5.97%.

As for `CCc1cccc(NC(=O)C2CCN(S(=O)(=O)c3ccc(Br)s3)CC2)c1`, the “activity change, positive = activation” value is inactive: -37.3%.

As to `Cc1ccc(-n2ncc3c(=O)n(Cc4cccc(Cl)c4)cnc32)cc1C`, the “activity change, positive = activation” value was inactive: -4.2%.

As to `O=C(NCc1ccccc1)c1cccn1-c1nnc(N2CCCCC2)s1`, the “activity change, positive = activation” value was inactive: -12.5%.

Consider `CC1CC(OC(=O)c2ccccc2O)CC(C)(C)C1` (configuration not stated), for which the “activity change, positive = activation” value is inactive: -1.6%.

`COc1ccc(Cn2c(C(=O)O)c(CNCc3ccco3)c3ccc(C)cc32)cc1`: the “activity change, positive = activation” value was inactive: -25.8%.

Regarding `Cc1ccc(C)c(NC(=O)Nc2cc3c(cc2N2CCCCC2)n(C)c(=O)n3C)c1`, the “activity change, positive = activation” value was inactive: -43.3%.

`COCCNC(=O)CSc1c(C)cnc2c1c(=O)n(C)c(=O)n2C`: the “activity change, positive = activation” value was inactive: -3.91%.

The values are drawn from PubChem BioAssay AID1508624 (National Center for Advancing Translational Sciences (NCATS), 2021).
